Results reported in PubChem BioAssay AID1963448 (Molecular Pharmacology Branch, DTP, NCI, 2024).
The source holds more than one record for some entries. This list holds those alone. The source may hold further records. Values that stand side by side repeat one measurement (runs, samples, wells, individuals or studies). Dates in brackets are months of testing. Marks such as (2×) give the number of equal values in this list. Blank lines part the entries; values can stand above or below the molecule they belong to.

System: 616215-338-R-J1-PDC complex spheroid growth, % test/control
Assay: Anticancer human tumor 616215-338-R-J1-PDC patient-derived colon adenocarcinoma cell line growth inhibition [Asc]
Conditions: for viability, T/C: stronger effect = lower value; for IC50: compound alone
Method: Multicellular complex tumor spheroid response to apoptosis pathway targeting inhibitors Alrizomadlin, Pelcitoclax, and Dasminapant in combination with a variety of drugs and investigational agents in selected tumor cell lines
The MDM2 inhibitor alrizomadlin, the Bcl-2/Bcl-xL inhibitor pelcitoclax, and the IAPs inhibitor dasminapant were evaluated both individually and in combination with standard of care and investigational anticancer small molecules within a complex spheroid model of solid tumors. . Complex spheroids include a stromal component modeled by human endothelial cells (HUVEC) and fibroblasts modeled by human mesenchymal stem cells (MSCs). The concentration ranges selected for each drug and investigational agent were based upon clinically achievable concentrations if the clinical Cmax of the agent was known.
Compounds. The drugs and investigational agents: alrizomadlin (APG-115; NSC831270), pelcitoclax (APG-1252; NSC835773), dasminapant (APG-1387;NSC834197), TAK-243 (NSC785004), copanlisib (NSC809693), olaparib (NSC753686), talazoparib (NSC767125), cobimetinib (NSC 768068), eltanexor (KPT-8602, NSC 794443), abemaciclib (NSC 768073), sotorasib (NSC818433), adagrasib (NSC 831453), MRTX-1133 (NSC 836407), Iadademestat (ORY1001, NSC 806812), and RMC-4630 (NSC839698), were obtained from the NCI Developmental Therapeutics Program Chemical Repository. The FDA-approved anticancer drug set is available from the Developmental Therapeutics Program at https://dtp.cancer.gov/organization/dscb/obtaining/available plates.htm. […] The stock solutions were prepared in dimethyl sulfoxide (DMSO, Sigma-Aldrich, St. Louis, MO, cat. D2650) at 800-fold the tested concentration and stored at -70 degrees C prior to their use. All drugs and investigational agents were tested over a range starting from a high concentration at or near the clinical Cmax and decreasing in half-log increments. If the clinical Cmax for an agent had not been determined, the highest concentration tested was 10 microM.
The patient-derived cancer (PDC) cell lines include five colon adenocarcinomas: 186277-243-T-J2-PDC, 616215-338-R-J1-PDC, 439559-082-T-J2-PDC, 463943-066-T-J2-PDC, and 519858-162-T-J1-PDC; three pancreatic carcinomas: 323965-272-R-J2-PDC, 521955-158-R6-J3-PDC, and 521955-158-R2-J5-PDC; two uterine sarcomas: 327498-152-R-J2-PDC and 993429-296-R-J1-PDC; two rhabdomyosarcomas: 755483-174-R-J1-PDC and 772245-204-R-J1-PDC; two soft tissue sarcomas: 126254-015-R-J1-PDC and 494315-158-R-J1-PDC; two malignant fibrous histiocytomas: 317291-083-R-J1-PDC and 596521-263-R-J1-PDC; two breast carcinomas: 171881-019-R-J1-PDC and 885512-296-R-J2-PDC; and one ovarian carcinoma: 6556581-035-R-J-PDC were obtained from the NCI PDMR, (https://pdmr.cancer.gov). The established cell lines HSSY-2 synovial sarcoma (RRID:CVCL 8719), SYO-1 synovial sarcoma (RRID:CVCL_7146), MPNST malignant peripheral neural sheath tumor were obtained from the Sloan Kettering Institute. The following established cell lines were purchased from the American Type Culture Collection (ATCC, Manassas, VA), Sor the received from the NCI repository:, PANC-1 pancreatic carcinoma (CRL-1469, RRID:CVCL_0480), OVCAR-5 ovarian carcinoma (RRID:CVCL_1628), OVCAR-8 ovarian carcinoma (RRID:CVCL_1629), , MCF-7 breast carcinoma (CRL-12584, RRID:CVCL_0031), MDA-MB-231 breast carcinoma (CRL-12532, RRID:CVCL_0062), NCI-H1876 small cell lung carcinoma (CRL-5902, RRID:CVCL_1503), NCI-H510A small cell lung carcinoma (HTB-184, RRID:CVCL_1565), NCI-H1417 (CRL-5869, RRID:CVCL_1469), and NCI-H196 small cell lung carcinoma (CRL-5823, RRID:CVCL_1509). Dr. Peter Houghton (Greehey Children's Cancer Research Institute, University of Texas Health Science Center, San Antonio, TX) provided Rh-18 rhabdomyosarcoma (RRID:CVCL_1659). Pooled donor human umbilical vein endothelial cells (HUVEC, Lonza, cat. CC-2519) and human mesenchymal stem cells (hMSC, Lonza, cat. PT-2501) were purchased from Lonza (Walkersville, MD).
Cell Culture. […]
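Also: spheroids exposed to agents for seven days before readout.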
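For viability, T/C in this document: 100% = DMSO vehicle control viability.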

Structure (SMILES): C#Cc1c(F)ccc2cc(O)cc(-c3ncc4c(N5CC6CCC(C5)N6)nc(OCC56CCCN5CC(F)C6)nc4c3F)c12 (configuration not stated)
viability, T/C (compound alone 10 µM): 87.1%, 82% [2022-10] and 7.74% [2022-11]

Structure (SMILES): NC(=O)C(=Cn1cnc(-c2cc(C(F)(F)F)cc(C(F)(F)F)c2)n1)c1cncnc1
IC50: > 300 nM [2022-10] and 0.949 nM [2022-11]

Structure (SMILES): CCN1C(C(=O)NC23CCC(C(=O)O)(CC2)CC3)C(c2cccc(Cl)c2F)C2(C(=O)Nc3cc(Cl)ccc32)C12CCCCC2 (configuration not stated)
viability, T/C (compound alone 0.0949 µM): 98.5, 93.8, 90.9, 97.2, 90.5, 83.8, 92.7, 91.5, 95.3, 95.1, 93.4, 86.5, 80.8, 99.2% [2022-10] and 62.1% [2022-11]
viability, T/C (compound alone 0.3 µM): 81.2, 68.5, 67.3, 62.5, 65.9 (2×), 65.2, 66.8, 65.5, 61.4, 64.2, 61.9, 55.4, 59% [2022-10] and 42.3% [2022-11]
viability, T/C (compound alone 0.949 µM): 70.7, 66.5, 59.5, 62.3, 62.2, 53.7, 61.1, 59.9, 58.1, 65.9, 79.1, 60.8, 69.4, 72.4% [2022-10] and 64.1% [2022-11]
viability, T/C (compound alone 3 µM): 56, 49.3, 47.2, 46.9, 49, 42.8, 47.5, 49.2, 49.5, 47.8, 60.3, 41.5, 51.3, 67% [2022-10] and 42.5% [2022-11]
IC50 (run of 10/11/2022): 2.64 µM, > 3 µM, 1.25 µM, 2.35 µM, 2.32 µM, 1.45 µM

IC50 (run of 11/15/2022): < 3.16 nM and > 1 µM
Structure (SMILES): CNC(C)C(=O)NC1CN(S(=O)(=O)c2cccc(S(=O)(=O)N3CCC4CCC(C(=O)NC(c5ccccc5)c5ccccc5)N4C(=O)C(NC(=O)C(C)NC)C3)c2)CCC2CCC(C(=O)NC(c3ccccc3)c3ccccc3)N2C1=O (configuration not stated)
viability, T/C (compound alone 0.00316 µM): 98.5%, 108% [2022-10] and 9.37, 107, 108, 109, 115, 99, 106% [2022-11]
viability, T/C (compound alone 0.0316 µM): 100%, 93.5% [2022-10] and 103, 114, 113, 104, 89, 84.2, 97.8% [2022-11]

Structure (SMILES): C=C(F)C(=O)N1CCN(c2nc(OCC3CCCN3C)nc3c2CCN(c2cccc4cccc(Cl)c24)C3)CC1CC#N (configuration not stated)
IC50: 5.7 µM, 5.51 µM [2022-10] and 545 nM [2022-11]
viability, T/C (compound alone 3.16 µM): 102%, 97.7% [2022-10] and 1.04% [2022-11]
